MIC of invasive clinical C. tropicalis isolates, CLSI broth microdilution (fluconazole 0.12-256 mg/L, up to 1,024 for the azole-resistant cluster and its neighbour group; other ranges not stated); higher = less susceptible. Call: susceptible or wild type [S] / resistant or non-wild type [R] by CLSI breakpoints or cut-offs; intermediate and dose-dependent carry no call. '<=' and '>=' at the end values are inferred; the source marks only some of them. Isolates are numbered anew.
Legend:
Assay in all cases: CLSI broth microdilution.
itraconazole = compound: CCC(C)n1ncn(-c2ccc(N3CCN(c4ccc(OCC5COC(Cn6cncn6)(c6ccc(Cl)cc6Cl)O5)cc4)CC3)cc2)c1=O [itraconazole]
micafungin = compound: CCCCCOc1ccc(-c2cc(-c3ccc(C(=O)N[C@H]4C[C@@H](O)[C@@H](O)NC(=O)[C@@H]5[C@@H](O)[C@@H](C)CN5C(=O)[C@H]([C@H](O)CC(N)=O)NC(=O)[C@H]([C@H](O)[C@@H](O)c5ccc(O)c(OS(=O)(=O)O)c5)NC(=O)[C@@H]5C[C@@H](O)CN5C(=O)[C@H]([C@@H](C)O)NC4=O)cc3)no2)cc1 [micafungin]
anidulafungin = compound: CCCCCOc1ccc(-c2ccc(-c3ccc(C(=O)N[C@H]4C[C@@H](O)[C@@H](O)NC(=O)[C@@H]5[C@@H](O)[C@@H](C)CN5C(=O)[C@H]([C@@H](C)O)NC(=O)[C@H]([C@H](O)[C@@H](O)c5ccc(O)cc5)NC(=O)[C@@H]5C[C@@H](O)CN5C(=O)[C@H]([C@@H](C)O)NC4=O)cc3)cc2)cc1 [anidulafungin]
posaconazole = compound: CC[C@@H]([C@H](C)O)n1ncn(-c2ccc(N3CCN(c4ccc(OC[C@@H]5CO[C@@](Cn6cncn6)(c6ccc(F)cc6F)C5)cc4)CC3)cc2)c1=O [posaconazole]
caspofungin = compound: CC[C@H](C)C[C@H](C)CCCCCCCCC(=O)N[C@H]1C[C@@H](O)[C@@H](NCCN)NC(=O)[C@@H]2[C@@H](O)CCN2C(=O)[C@H]([C@H](O)CCN)NC(=O)[C@H]([C@H](O)[C@@H](O)c2ccc(O)cc2)NC(=O)[C@@H]2C[C@@H](O)CN2C(=O)[C@H]([C@@H](C)O)NC1=O [caspofungin]
voriconazole = compound: C[C@@H](c1ncncc1F)[C@](O)(Cn1cncn1)c1ccc(F)cc1F [voriconazole]
amphotericin B = compound: C[C@@H]1[C@H](O)[C@@H](C)/C=C/C=C/C=C/C=C/C=C/C=C/C=C/[C@H](O[C@@H]2O[C@H](C)[C@@H](O)[C@H](N)[C@@H]2O)C[C@@H]2O[C@](O)(C[C@@H](O)C[C@@H](O)[C@H](O)CC[C@@H](O)C[C@@H](O)CC(=O)O[C@H]1C)C[C@H](O)[C@H]2C(=O)O [amphotericin B]
flucytosine = compound: Nc1[nH]c(=O)ncc1F [flucytosine]
fluconazole = compound: OC(Cn1cncn1)(Cn1cncn1)c1ccc(F)cc1F [fluconazole]

Test System | MIC (itraconazole) | MIC (micafungin) | MIC (anidulafungin) | MIC (posaconazole) | MIC (caspofungin) | MIC (voriconazole) | MIC (amphotericin B) | MIC (flucytosine) | MIC (fluconazole)
Candida tropicalis isolate 158 (ERG11 copies: 2, Erg11p: no key change) | 0.03 mg/L [S] | 0.03 mg/L [S] | ≤ 0.015 mg/L [S] | 0.03 mg/L [S] | 0.03 mg/L [S] | 0.03 mg/L [S] | 0.5 mg/L [S] | ≤ 0.06 mg/L [S] | 0.5 mg/L [S]
Candida tropicalis isolate 159 (ERG11 copies: 2, Erg11p: no key change) | 0.25 mg/L [S] | 0.06 mg/L [S] | 0.12 mg/L [S] | 0.12 mg/L [S] | 0.25 mg/L [S] | 0.12 mg/L [S] | 0.5 mg/L [S] | ≤ 0.06 mg/L [S] | 2 mg/L [S]
Candida tropicalis isolate 160 (ERG11 copies: 2, Erg11p: no key change) | 0.25 mg/L [S] | 0.015 mg/L [S] | 0.06 mg/L [S] | 0.5 mg/L [R] | 0.03 mg/L [S] | 0.25 µg/mL | 1 mg/L [S] | ≤ 0.06 mg/L [S] | 4 µg/mL
Candida tropicalis isolate 161 (ERG11 copies: 2, Erg11p: no key change) | 0.25 mg/L [S] | 0.06 mg/L [S] | 0.12 mg/L [S] | 0.12 mg/L [S] | 0.12 mg/L [S] | 0.12 mg/L [S] | 0.5 mg/L [S] | ≤ 0.06 mg/L [S] | 2 mg/L [S]
Candida tropicalis isolate 162 (ERG11 copies: 2, Erg11p: no key change) | 0.5 mg/L [S] | 0.03 mg/L [S] | 0.12 mg/L [S] | 1 mg/L [R] | 0.03 mg/L [S] | 0.25 µg/mL | 0.5 mg/L [S] | 0.12 mg/L [S] | 2 mg/L [S]
Candida tropicalis isolate 163 (ERG11 copies: 2, Erg11p: no key change) | 0.12 mg/L [S] | 0.06 mg/L [S] | 0.25 mg/L [S] | 0.12 mg/L [S] | 0.03 mg/L [S] | 0.06 mg/L [S] | 1 mg/L [S] | 0.12 mg/L [S] | 1 mg/L [S]
Candida tropicalis isolate 164 (ERG11 copies: 2, Erg11p: no key change) | 0.12 mg/L [S] | 0.06 mg/L [S] | 0.06 mg/L [S] | 0.12 mg/L [S] | 0.03 mg/L [S] | 0.12 mg/L [S] | 0.5 mg/L [S] | ≤ 0.06 mg/L [S] | 1 mg/L [S]
Candida tropicalis isolate 165 (ERG11 copies: 2, Erg11p: no key change) | 0.5 mg/L [S] | 0.03 mg/L [S] | 0.06 mg/L [S] | 0.5 mg/L [R] | 0.03 mg/L [S] | 0.5 µg/mL | 1 mg/L [S] | ≤ 0.06 mg/L [S] | 4 µg/mL
Candida tropicalis isolate 166 (ERG11 copies: 2, Erg11p: no key change) | 0.25 mg/L [S] | 0.03 mg/L [S] | ≤ 0.015 mg/L [S] | 0.25 mg/L [S] | 0.03 mg/L [S] | 0.12 mg/L [S] | 0.5 mg/L [S] | ≤ 0.06 mg/L [S] | 2 mg/L [S]
Candida tropicalis isolate 167 (ERG11 copies: 6, Erg11p: Y132F, S154F (heterozygous)) | 1 mg/L [R] | 0.03 mg/L [S] | 0.03 mg/L [S] | 1 mg/L [R] | 0.015 mg/L [S] | ≥ 8 mg/L [R] | 1 mg/L [S] | ≤ 0.06 mg/L [S] | 256 mg/L [R]
Candida tropicalis isolate 168 (ERG11 copies: 2, Erg11p: no key change) | 0.12 mg/L [S] | 0.06 mg/L [S] | 0.25 mg/L [S] | 0.12 mg/L [S] | 0.25 mg/L [S] | 0.06 mg/L [S] | 1 mg/L [S] | 0.12 mg/L [S] | 1 mg/L [S]
Candida tropicalis isolate 169 (ERG11 copies: 2, Erg11p: no key change) | 0.25 mg/L [S] | 0.03 mg/L [S] | 0.03 mg/L [S] | 0.5 mg/L [R] | 0.03 mg/L [S] | 0.12 mg/L [S] | 2 mg/L [S] | ≤ 0.06 mg/L [S] | 2 mg/L [S]
Candida tropicalis isolate 170 (ERG11 copies: 2, Erg11p: Y132F, S154F (homozygous)) | 0.5 mg/L [S] | 0.03 mg/L [S] | 0.25 mg/L [S] | 0.5 mg/L [R] | 0.12 mg/L [S] | > 8 mg/L [R] | 1 mg/L [S] | 0.12 mg/L [S] | > 256 mg/L [R]
Candida tropicalis isolate 171 (ERG11 copies: 2, Erg11p: no key change) | 0.12 mg/L [S] | 0.008 mg/L [S] | ≤ 0.015 mg/L [S] | 0.12 mg/L [S] | 0.03 mg/L [S] | 0.03 mg/L [S] | 1 mg/L [S] | ≤ 0.06 mg/L [S] | 1 mg/L [S]
Candida tropicalis isolate 172 (ERG11 copies: 2, Erg11p: no key change) | 0.5 mg/L [S] | 0.06 mg/L [S] | 0.12 mg/L [S] | 0.5 mg/L [R] | 0.25 mg/L [S] | ≥ 8 mg/L [R] | 0.5 mg/L [S] | ≤ 0.06 mg/L [S] | 256 mg/L [R]
Candida tropicalis isolate 173 (ERG11 copies: 2, Erg11p: no key change) | 0.12 mg/L [S] | 0.03 mg/L [S] | 0.03 mg/L [S] | 0.25 mg/L [S] | 0.03 mg/L [S] | 0.12 mg/L [S] | 1 mg/L [S] | 0.12 mg/L [S] | 1 mg/L [S]
